Test results from the supplement of paper PMC11876631.
± gives the standard deviation of the averaged measurements. Laboratory Escherichia coli strains with one amino-acid change in an essential protein, pooled on minimal glucose agar with carbenicillin or gentamicin at twice the control MIC (plus kanamycin and chloramphenicol for the plasmids), 48 h. Fold change of barcode share against drug-free plates; higher = less susceptible. Active = above 20 in both replicates (the paper's putatively resistant). '<' = one read or none on drug, '>' = one read or none on a drug-free plate. Shares are relative, so most strains fall below 1 when a few take over. Listed are strains with at least 15 reads on both drug-free plates, and hits; most hits rest on fewer reference reads. Replicate rank correlation about 0.5. Edits are read from barcodes.

Target: Escherichia coli (laboratory strain)
Experiment: barcode share on antibiotic plates over drug-free plates; higher = less susceptible
Description: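 A pool of E. coli strains, each edited to carry one amino-acid change in an essential protein, was grown for 48 h on minimal glucose agar with or without antibiotic; strain barcodes were sequenced; mean of two replicates.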

[1] = antibiotic: carbenicillin, 2× MIC (3.1 µg/mL)
[2] = antibiotic: gentamicin, 2× MIC (MIC 0.45 µg/mL)

B1: dapD I184Q (protein)
chain: MQQLQNIIETAFERRAEITPANADTVTREAVNQVIALLDSGALRVAEKIDGQWVTHQWLKKAVLLSFRINDNQVIEGAESRYFDKVPMKFADYDEARFQKEGFRVVPPAAVRQGAFIARNTVLMPSYVNIGAYVDEGTMVDTWATVGSCAQIGKNVHLSGGVGIGGVLEPLQANPTIIEDNCFQGARSEVVEGVIVEEGSVISMGVYIGQSTRIYDRETGEIHYGRVPAGSVVVSGNLPSKDGKYSLYCAVIVKKVDAKTRGKVGINELLRTID
For B1, the “fold change of barcode share” value [1] was 0.253 ± 0.02 and the “fold change of barcode share” value [2] was < 0.016.

B2: dapD V45A (protein)
chain: MQQLQNIIETAFERRAEITPANADTVTREAVNQVIALLDSGALRAAEKIDGQWVTHQWLKKAVLLSFRINDNQVIEGAESRYFDKVPMKFADYDEARFQKEGFRVVPPAAVRQGAFIARNTVLMPSYVNIGAYVDEGTMVDTWATVGSCAQIGKNVHLSGGVGIGGVLEPLQANPTIIEDNCFIGARSEVVEGVIVEEGSVISMGVYIGQSTRIYDRETGEIHYGRVPAGSVVVSGNLPSKDGKYSLYCAVIVKKVDAKTRGKVGINELLRTID
With B2 the “fold change of barcode share” value [1] was 0.367 ± 0.054 and the “fold change of barcode share” value [2] was 0.0228 ± 0.028.

B3: dapD V233A (protein)
chain: MQQLQNIIETAFERRAEITPANADTVTREAVNQVIALLDSGALRVAEKIDGQWVTHQWLKKAVLLSFRINDNQVIEGAESRYFDKVPMKFADYDEARFQKEGFRVVPPAAVRQGAFIARNTVLMPSYVNIGAYVDEGTMVDTWATVGSCAQIGKNVHLSGGVGIGGVLEPLQANPTIIEDNCFIGARSEVVEGVIVEEGSVISMGVYIGQSTRIYDRETGEIHYGRVPAGSVAVSGNLPSKDGKYSLYCAVIVKKVDAKTRGKVGINELLRTID
B3 was tested, and the “fold change of barcode share” value [1] was 0.508 ± 0.095.

B4: dapB I77A (protein)
chain: MHDANIRVAIAGAGGRMGRQLIQAALALEGVQLGAALEREGSSLLGSDAGELAGAGKTGVTVQSSLDAVKDDFDVFADFTRPEGTLNHLAFCRQHGKGMVIGTTGFDEAGKQAIRDAAADIAIVFAANFSVGVNVMLKLLEKAAKVMGDYTDIEIIEAHHRHKVDAPSGTALAMGEAIAHALDKDLKDCAVYSREGHTGERVPGTIGFATVRAGDIVGEHTAMFADIGERLEITHKASSRMTFANGAVRSALWLSGKESGLFDMRDVLDLNNL
With B4 the “fold change of barcode share” value [1] was 0.298 ± 0.0064 and the “fold change of barcode share” value [2] was < 0.00429.

B5: dapB I153A (protein)
chain: MHDANIRVAIAGAGGRMGRQLIQAALALEGVQLGAALEREGSSLLGSDAGELAGAGKTGVTVQSSLDAVKDDFDVFIDFTRPEGTLNHLAFCRQHGKGMVIGTTGFDEAGKQAIRDAAADIAIVFAANFSVGVNVMLKLLEKAAKVMGDYTDAEIIEAHHRHKVDAPSGTALAMGEAIAHALDKDLKDCAVYSREGHTGERVPGTIGFATVRAGDIVGEHTAMFADIGERLEITHKASSRMTFANGAVRSALWLSGKESGLFDMRDVLDLNNL
In the case of B5, the “fold change of barcode share” value [1] is reported as 0.398 ± 0.064 and the “fold change of barcode share” value [2] is reported as < 0.00523.

B6: dapB I153W (protein)
chain: MHDANIRVAIAGAGGRMGRQLIQAALALEGVQLGAALEREGSSLLGSDAGELAGAGKTGVTVQSSLDAVKDDFDVFIDFTRPEGTLNHLAFCRQHGKGMVIGTTGFDEAGKQAIRDAAADIAIVFAANFSVGVNVMLKLLEKAAKVMGDYTDWEIIEAHHRHKVDAPSGTALAMGEAIAHALDKDLKDCAVYSREGHTGERVPGTIGFATVRAGDIVGEHTAMFADIGERLEITHKASSRMTFANGAVRSALWLSGKESGLFDMRDVLDLNNL
With B6 the “fold change of barcode share” value [1] was 0.269 ± 0.087 and the “fold change of barcode share” value [2] was < 0.00494.

B7: dapB V248A (protein)
chain: MHDANIRVAIAGAGGRMGRQLIQAALALEGVQLGAALEREGSSLLGSDAGELAGAGKTGVTVQSSLDAVKDDFDVFIDFTRPEGTLNHLAFCRQHGKGMVIGTTGFDEAGKQAIRDAAADIAIVFAANFSVGVNVMLKLLEKAAKVMGDYTDIEIIEAHHRHKVDAPSGTALAMGEAIAHALDKDLKDCAVYSREGHTGERVPGTIGFATVRAGDIVGEHTAMFADIGERLEITHKASSRMTFANGAARSALWLSGKESGLFDMRDVLDLNNL
B7 was tested, and the “fold change of barcode share” value [1] was 0.315 ± 0.11 and the “fold change of barcode share” value [2] was < 0.00351.

B8: dapB V124A (protein)
chain: MHDANIRVAIAGAGGRMGRQLIQAALALEGVQLGAALEREGSSLLGSDAGELAGAGKTGVTVQSSLDAVKDDFDVFIDFTRPEGTLNHLAFCRQHGKGMVIGTTGFDEAGKQAIRDAAADIAIAFAANFSVGVNVMLKLLEKAAKVMGDYTDIEIIEAHHRHKVDAPSGTALAMGEAIAHALDKDLKDCAVYSREGHTGERVPGTIGFATVRAGDIVGEHTAMFADIGERLEITHKASSRMTFANGAVRSALWLSGKESGLFDMRDVLDLNNL
With B8 the “fold change of barcode share” value [1] was 0.527 ± 0.094 and the “fold change of barcode share” value [2] was < 0.0105.

B9: dapB I101A (protein)
chain: MHDANIRVAIAGAGGRMGRQLIQAALALEGVQLGAALEREGSSLLGSDAGELAGAGKTGVTVQSSLDAVKDDFDVFIDFTRPEGTLNHLAFCRQHGKGMVAGTTGFDEAGKQAIRDAAADIAIVFAANFSVGVNVMLKLLEKAAKVMGDYTDIEIIEAHHRHKVDAPSGTALAMGEAIAHALDKDLKDCAVYSREGHTGERVPGTIGFATVRAGDIVGEHTAMFADIGERLEITHKASSRMTFANGAVRSALWLSGKESGLFDMRDVLDLNNL
For B9, the “fold change of barcode share” value [1] was 0.422 ± 0.12 and the “fold change of barcode share” value [2] was 0.00557 ± 0.0022.

B10: dapB I77W (protein)
chain: MHDANIRVAIAGAGGRMGRQLIQAALALEGVQLGAALEREGSSLLGSDAGELAGAGKTGVTVQSSLDAVKDDFDVFWDFTRPEGTLNHLAFCRQHGKGMVIGTTGFDEAGKQAIRDAAADIAIVFAANFSVGVNVMLKLLEKAAKVMGDYTDIEIIEAHHRHKVDAPSGTALAMGEAIAHALDKDLKDCAVYSREGHTGERVPGTIGFATVRAGDIVGEHTAMFADIGERLEITHKASSRMTFANGAVRSALWLSGKESGLFDMRDVLDLNNL
With B10 the “fold change of barcode share” value [1] was 0.308 ± 0.017 and the “fold change of barcode share” value [2] was 0.0125 ± 0.00019.

B11: dapB V124Q (protein)
chain: MHDANIRVAIAGAGGRMGRQLIQAALALEGVQLGAALEREGSSLLGSDAGELAGAGKTGVTVQSSLDAVKDDFDVFIDFTRPEGTLNHLAFCRQHGKGMVIGTTGFDEAGKQAIRDAAADIAIQFAANFSVGVNVMLKLLEKAAKVMGDYTDIEIIEAHHRHKVDAPSGTALAMGEAIAHALDKDLKDCAVYSREGHTGERVPGTIGFATVRAGDIVGEHTAMFADIGERLEITHKASSRMTFANGAVRSALWLSGKESGLFDMRDVLDLNNL
For B11, the “fold change of barcode share” value [1] was 0.406 ± 0.15.

B12: dapB V248Q (protein)
chain: MHDANIRVAIAGAGGRMGRQLIQAALALEGVQLGAALEREGSSLLGSDAGELAGAGKTGVTVQSSLDAVKDDFDVFIDFTRPEGTLNHLAFCRQHGKGMVIGTTGFDEAGKQAIRDAAADIAIVFAANFSVGVNVMLKLLEKAAKVMGDYTDIEIIEAHHRHKVDAPSGTALAMGEAIAHALDKDLKDCAVYSREGHTGERVPGTIGFATVRAGDIVGEHTAMFADIGERLEITHKASSRMTFANGAQRSALWLSGKESGLFDMRDVLDLNNL
B12 was tested, and the “fold change of barcode share” value [1] was 0.325 ± 0.042 and the “fold change of barcode share” value [2] was 0.00994 ± 0.011.

B13: dapB I153Q (protein)
chain: MHDANIRVAIAGAGGRMGRQLIQAALALEGVQLGAALEREGSSLLGSDAGELAGAGKTGVTVQSSLDAVKDDFDVFIDFTRPEGTLNHLAFCRQHGKGMVIGTTGFDEAGKQAIRDAAADIAIVFAANFSVGVNVMLKLLEKAAKVMGDYTDQEIIEAHHRHKVDAPSGTALAMGEAIAHALDKDLKDCAVYSREGHTGERVPGTIGFATVRAGDIVGEHTAMFADIGERLEITHKASSRMTFANGAVRSALWLSGKESGLFDMRDVLDLNNL
For B13, the “fold change of barcode share” value [1] was 0.305 ± 0.13 and the “fold change of barcode share” value [2] was 0.0113 ± 0.0022.

B14: dapB I153P (protein)
chain: MHDANIRVAIAGAGGRMGRQLIQAALALEGVQLGAALEREGSSLLGSDAGELAGAGKTGVTVQSSLDAVKDDFDVFIDFTRPEGTLNHLAFCRQHGKGMVIGTTGFDEAGKQAIRDAAADIAIVFAANFSVGVNVMLKLLEKAAKVMGDYTDPEIIEAHHRHKVDAPSGTALAMGEAIAHALDKDLKDCAVYSREGHTGERVPGTIGFATVRAGDIVGEHTAMFADIGERLEITHKASSRMTFANGAVRSALWLSGKESGLFDMRDVLDLNNL
In the case of B14, the “fold change of barcode share” value [1] is reported as 0.617 ± 0.47 and the “fold change of barcode share” value [2] is reported as 0.00548 ± 0.0022.

B15: dapB I123A (protein)
chain: MHDANIRVAIAGAGGRMGRQLIQAALALEGVQLGAALEREGSSLLGSDAGELAGAGKTGVTVQSSLDAVKDDFDVFIDFTRPEGTLNHLAFCRQHGKGMVIGTTGFDEAGKQAIRDAAADIAAVFAANFSVGVNVMLKLLEKAAKVMGDYTDIEIIEAHHRHKVDAPSGTALAMGEAIAHALDKDLKDCAVYSREGHTGERVPGTIGFATVRAGDIVGEHTAMFADIGERLEITHKASSRMTFANGAVRSALWLSGKESGLFDMRDVLDLNNL
In the case of B15, the “fold change of barcode share” value [1] is reported as 0.483 ± 0.11 and the “fold change of barcode share” value [2] is reported as 0.0878 ± 0.042.

B16: dapB F224W (protein)
chain: MHDANIRVAIAGAGGRMGRQLIQAALALEGVQLGAALEREGSSLLGSDAGELAGAGKTGVTVQSSLDAVKDDFDVFIDFTRPEGTLNHLAFCRQHGKGMVIGTTGFDEAGKQAIRDAAADIAIVFAANFSVGVNVMLKLLEKAAKVMGDYTDIEIIEAHHRHKVDAPSGTALAMGEAIAHALDKDLKDCAVYSREGHTGERVPGTIGFATVRAGDIVGEHTAMWADIGERLEITHKASSRMTFANGAVRSALWLSGKESGLFDMRDVLDLNNL
B16 was tested, and the “fold change of barcode share” value [1] was 0.351 ± 0.1 and the “fold change of barcode share” value [2] was 0.0315 ± 0.014.
